Measured values from PubChem BioAssay AID1508624 (National Center for Advancing Translational Sciences (NCATS), 2021).
Out of some 48,000 compounds screened, about 120 (0.25%) were called active. About 4% were inconclusive and are not listed. The call rests on the fitted dose curve; in most records, active means well fitted activation curve with a large enough effect; inconclusive means small, poorly fitted or top-dose-only effect, or another doubt; inactive means no such curve, though single readings can be large or run the other way. The list shows a part of the results.

Assay: Primary qHTS for Identification of Small Molecule Activators of Huntingtin-Antisense Promoter Activity; further: nearly all actives have a fitted effect of over 55% in size
Settings: HEK293 HTT-AS promoter firefly luciferase reporter, 24 h; series mostly up to 57.5 µM; activity change, positive = activation: at the top concentration
Procedure, shortened: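 HEK293 luciferase promoter-reporter cells (2,500/well) plated 24 h, then compounds added at up to 57.5 uM final for 24 h at 37 °C. Firefly luminescence by Dual-Glo, normalized to vehicle (0%) and zero RLU (-100%).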

Activity change, positive = activation, inactive:
Cc1cc2c(cc1NS(=O)(=O)c1ccc(Br)cc1)n(C)c(=O)c(=O)n2C -33.9%, CCCSCCCNC(=O)c1ccc(C)c(NC(=O)c2nsc3ccccc23)c1 -14.6%, COc1cccc(Cn2nc(SC)c(S(=O)(=O)c3ccccc3)c2N(C(C)=O)C(C)=O)c1 -29.1%, Cc1cccc(C)c1NC(=O)CN1CCCC1 -3.99%, COc1ccc(-n2c(SCC(=O)NCc3ccc(Cl)cc3)nc3ccsc3c2=O)cc1 -26%, COc1nccnc1NS(=O)(=O)c1ccc(N)cc1 -3.04%, Cc1ccc(NC(=O)CCCc2nc(-c3ccco3)no2)cc1Cl -7.47%, COc1ccc(-n2nnnc2C2CCN(S(=O)(=O)c3cccc(C(F)(F)F)c3)CC2)cc1 -14.4%, COc1cccc(NC(=O)C(Cc2ccccc2)N2Cc3ccccc3C2=O)c1 (configuration not stated) 0.244%, COc1ccc(-c2noc(CCC(=O)N(C)c3cc(Cl)ccc3OC)n2)cc1 -15.8%, CC(C)CCOc1ccc(C(=O)NCC2OCCc3ccccc32)cc1 (configuration not stated) -9.12%, COc1ccc(NS(=O)(=O)c2ccc(N3CCCCS3(=O)=O)cc2)cc1Cl -24%, COc1cccc(-n2c(=O)c3cc(OC)c(OC)cc3n(CC(=O)Nc3ccc(F)cc3)c2=O)c1 -20.9%, COc1ccccc1N1CCN(c2ncnc3c2c(-c2ccccc2)cn3-c2cccc(Cl)c2)CC1 -11.2%, Cc1ccc(OCCSc2nc(-c3ccccc3C)nc3cc(=O)[nH]n23)cc1Cl 6.67%, Cc1nn(-c2nc(-c3ccccc3)cc(C(F)(F)F)n2)c(C)c1Cl -20.1%, CCc1nn(C(CC)C(=O)NCc2ccc(OC)c(OC)c2)c(=O)c2cc3oc(C)cc3n12 (configuration not stated) -27.7%, COc1ccc(S(=O)(=O)N2CCC(Oc3ccc(-n4cnnn4)cc3)CC2)cc1 -4%, COc1cccc(OC)c1C(=O)NCCc1sc(-c2cccc(F)c2)nc1C -15.1%, CCOc1ccc2c(c1)c(=O)c(C(=O)c1ccc3c(c1)OCO3)cn2Cc1ccc(F)cc1 -18.4%, CC(N)CCCC(C)(C)O (configuration not stated) 0.0651%, COc1cc(/C=C(\C#N)c2nc3ccc(C)cc3[nH]2)ccc1OCc1ccc(C)cc1 -5.8%, CC(=O)Nc1ccc(NC(=O)c2nc(S(=O)(=O)Cc3ccc(F)cc3)ncc2Cl)cc1 -94.2%, COc1cccc(CNC(=O)c2cnc3c(-c4ccc(F)cc4)c(C)nn3c2C)c1 0.905%, CCc1ccc(C2C(C(=O)Nc3ccccc3OC)=C(C)Nc3c(C(=O)Nc4ccc(C)cc4)cnn32)cc1 (configuration not stated) -23.6%, CCN(C(=O)c1cn(-c2cccc(OC)c2)c(=O)c2ccccc12)c1ccccc1C -27.5%, COc1ccc(C(=O)Nc2ccccc2-c2nc3ccccc3s2)cc1OC -14.5%, Cc1ccc(C)c(NC(=O)CSc2nccn2-c2cccc(C)c2C)c1 -9.21%, COc1ccc(OC)c(NC(=O)c2oc(=O)c3ccccc3c2-c2ccccc2)c1 -17.4%, COc1ccc(CC(=O)N2CCc3cc(OC)c(OC)cc3C2COc2ccc(F)cc2)cc1 (configuration not stated) -29.5%, N#CCC(=O)NN -4.46%, COc1cc2c(cc1OC)C(c1cccc(Cl)c1)CC(=O)N2 (configuration not stated) -16.9%, Cn1nc(-c2ccccc2F)c2cc(C(=O)NCc3ccccc3Cl)sc21 -40.4%, COc1ccc(N2CCN(S(=O)(=O)c3ccc(F)c(C(=O)Nc4ccccc4Cl)c3)CC2)cc1 -38.4%, CCc1ccc(OCCSc2nc3ccccc3n2CC(=O)N2CCCCC2)cc1 -39%, O=C(c1ccc(F)cc1)N1CCc2c([nH]c3ccccc23)C1c1ccc(Cl)cc1 (configuration not stated) -32.1%, CCOc1ccc(NCc2cccn2-c2nnc(N3CCC(C(=O)NCc4ccccc4Cl)CC3)s2)cc1 -56.6%, CC(C)(C)OC(=O)N1CCC(c2c(C(=O)NCc3cccs3)cnn2-c2cccc(F)c2)CC1 -16%, COc1ccc(Cl)cc1NC(=O)N1CCN(S(=O)(=O)c2ccc3c(ccn3C)c2)CC1 -19.8%, O=C(c1ccc2c(Cl)c3c(nc2c1)CCCC3)N1CCN(c2ccc(Cl)cc2)CC1 -8.61%, COc1ccc(N2CCN(CCCNC(=O)C3COc4ccccc4C3)CC2)cc1 (configuration not stated) -5.18%, O=C(Nc1nc2c(F)cc(F)cc2s1)c1ccc(S(=O)(=O)N2CCc3ccccc32)cc1 -56.1%, CCOc1ccc(-n2c(=O)c3c4c(sc3n(CC(=O)NC(C)CC)c2=O)CCCCC4)cc1 (configuration not stated) -13.4%, Cc1ccc(CNC(=O)CSc2nc3c(sc4ccccc43)c(=O)n2CCCC(=O)NCCO)cc1 4.74%, O=C(Nc1ccc(F)cc1)Nc1csc2c1CCCC2 6.43%, C[C@@H](O[C@H]1OCCN(Cc2n[nH]c(=O)[nH]2)[C@H]1c1ccc(F)cc1)c1cc(C(F)(F)F)cc(C(F)(F)F)c1 -44.4%, CCN1C(C(=O)c2ccccc2)=C(OC(=O)COc2ccc(C)cc2)c2ccccc2S1(=O)=O -39.8%, Oc1cccc(O)c1 0.476%, C[C@@H]1CCC[C@H](C)N1 -2.97%, Cc1ccccc1-c1noc(CSc2nc3ccccc3[nH]2)n1 -29.4%, COc1ccc(CCCc2nnc(SCC(=O)Nc3cccc(F)c3C)o2)cc1 -19.8%, CCOCCc1nn2c(=O)cc(COC(=O)c3ccccc3OC)nc2s1 -0.644%, CCOC(=O)C1CCCN(C(=O)c2ccc3c(c2)sc2nc(-c4cccc(OC)c4)cn23)C1 (configuration not stated) -76.4%, COCCCn1c(SCc2cccc(Cl)c2)nc2c(sc3ccccc32)c1=O -10.5%, Cc1cc(=O)n2nc(N(C)CC(=O)NCc3ccccc3C)sc2n1 -4.79%, CCCC(=O)Nc1cccc(OCc2cc(=O)n3cccc(C)c3n2)c1 8.62%, CCc1ccccc1Nc1nn2c(=O)c3ccc(C(=O)NCCC4=CCCCC4)cc3nc2s1 -21%, Cc1c(-c2cccc3c(CCCOc4cccc5ccccc45)c(C(=O)O)n(Cc4cccnc4)c23)c(COc2ccc(N3CCN([S+](=O)([O-])N(C)C)CC3)cc2)nn1C -22.1%, O=C(NCCc1ccccc1)c1cc(Nc2ccccc2)nc2ccccc12 -14.2%, CCOCCc1nnc(NC(=O)C(=O)c2cc(C)n(-c3ccc(C)cc3C)c2C)s1 -4.1%, CCn1c(C)c(C)c2cc(C(=O)NCC(C)c3ccccc3)ccc21 (configuration not stated) -3.69%, COc1ccc(N(CC(=O)Nc2cccc(Cl)c2)S(=O)(=O)c2c(C)[nH]c(=O)[nH]c2=O)cc1 0.391% [at 11.5 µM, percent change from vehicle, -100% = no light]
